This passage reports TGI and GI50 results from PubChem BioAssay (NCI).

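Protocol summary: plate cells (96-well), add compound at 5 concentrations, incubate 48 h, interpolate endpoints linearly. At the GI50, growth is halved. TGI: concentration producing complete growth inhibition.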 Bounds are passed on as bounds.

The experiment concerns NCI-H322M lung. The experiment in a line: DTP human tumour cell line panel, 48 h.
As usually defined, the TGI is the concentration giving total growth inhibition. The low end stands for greater sensitivity of the cells, the high end for lower sensitivity of the cells. Molecule `COc1ccc(-c2cc(=O)c3cc(O)ccc3o2)c(OC)c1OC` gave a TGI of over 100 µM. The molecule `CC1OC(CO)(n2cnc3c(N)ncnc32)C(O)C1O` (stereo unspecified) came in with a TGI of over 100 µM. For `CC(=O)Oc1cc(-c2oc3cc(OC(C)=O)c(C4OC(CO)C(O)C(O)C4O)c(OC(C)=O)c3c(=O)c2O)c(OC(C)=O)cc1O` (stereo unspecified), the TGI was over 100 µM. Same read-out and setting: as for `COc1ccc2c(ccc3c(C(=O)NCCCN(C)CCCNC(=O)c4cn(C)c5c4ccc4cc(OC)ccc45)cn(C)c32)c1`, the figure is 9.61 µM. In turn, `CN1C2(c3ccccc3)C(C(=O)c3ccccc3)=C(C(=O)c3ccccc3)C1(c1ccccc1)c1c(-c3ccccc3)sc(-c3ccccc3)c12` gave a TGI of over 100 µM.

By GI50 is commonly meant the concentration giving 50% growth inhibition. For `CC[C@@]1(O)C(=O)OCc2c1cc1n(c2=O)Cc2c-1nc1cc(F)c(C)c3c1c2[C@@H](NC(=O)CO)CC3`, the GI50 was 0.0784 µM and the TGI is over 27.2 µM. As to `Cc1[nH]nc(C(=O)N/N=C/c2ccccc2Cl)c1N=NN(C)C`, the TGI is over 100 µM. Take `O=C1OCC2=C1C(c1cccc(Cl)c1)c1cc3c(cc1N2CCO)CCC3` (stereo unspecified): the GI50 was 0.194 µM and the TGI worked out at 16.9 µM. As for `CC1[C@@H]2CC=C3[C@H]4CCC5Cc6nc7c(nc6C[C@@]5(C)C4CC(=O)[C@]32CO[C@]12OC(C)(C)CC2O)CC1CC[C@@H]2C3=C[C@H]4O[C@@]5(O[C@@](C)(CO)C[C@@H]5O)C(C)[C@@]4(O)[C@]3(C)[C@@H](O)CC2[C@]1(C)C7` (stereo partly specified), the GI50 is 0.0903 µM and the TGI is 0.682 µM. `O=C(Nc1ccc(F)cc1)c1cc2c(cc1Cl)Sc1nccn1S2(=O)=O` displayed a TGI of over 100 µM.

For the molecule `O=C(NC(OCc1ccccc1)(C(F)(F)F)C(F)(F)F)OCc1ccccc1`, the TGI worked out at 30.9 µM. As to `CO/C(=C1/NC(=O)C(Cc2ccc(O)c(Br)c2)N(C)C(=O)C(C)NC(=O)CCC/C=C(\C)CCC(C)OC1=O)c1ccccc1` (stereo unspecified), the GI50 was 0.134 µM and the total growth inhibition concentration (TGI) was 43.7 µM. `Cn1cnc(C(=N)[Se])c1N` had a TGI of 2.14 µM. On to `CCOc1ccc2c(c1)C(=O)c1c-2n(CCCN=[N+]=[N-])c(=O)c2cc([N+](=O)[O-])ccc12`, for which the GI50 was 18 µM and the concentration for total growth inhibition (TGI) is over 100 µM.

Consider `COc1ccc([C@@H]2OC(=O)C3C2C(=O)O[C@H]3c2ccc(OC)cc2)cc1` (stereo partly specified), for which the TGI is over 100 µM.

Take `Cc1cc(C)c2c(c1)N(C)c1ncnc(-n3cnc4cc(C)ccc43)c1CC2C` (stereo unspecified): the GI50 is 6.35 µM and the TGI worked out at 34.9 µM.

As for `O=C(CC(=O)N1N=C(N(c2ccccc2)c2ccccc2)CC1c1ccccc1)Nc1cccc(Cl)c1` (stereo unspecified), the TGI was over 100 µM.

In the case of `N#Cc1cccc(C2C(=O)c3ccc(C(=O)c4ccc5c(c4)C(=O)N(c4ccc(Oc6ccc(N7C(=O)c8ccc(C(=O)c9ccc%10c(c9)C(=O)N(c9cccc(C#N)c9)C%10=O)cc8C7=O)cc6)cc4)C5=O)cc3C2=O)c1` (stereo unspecified), the TGI was over 100 µM. Same read-out and setting: the result for `C=C(C)COc1cc(NC(=S)OC(C)C)ccc1Cl` reads 29.9 µM; that for `CCN(CC)C(=O)CC12CCCCC1=Nc1ccccc12` (stereo unspecified), over 100 µM. For the molecule `O=C1N[C@H](C(=O)O)[C@@H](c2ccc(OCc3ccccc3)cc2)O1`, the total growth inhibition concentration (TGI) is over 100 µM. Take `Cc1cc(C)c(/C=N/NS(=O)(=O)c2ccccc2)c(C)c1`: the concentration for total growth inhibition (TGI) is over 100 µM. In the case of `CC1=C(C(=O)Nc2ccc(C)cc2)C(c2cccc([N+](=O)[O-])c2)C(C(=O)Nc2ccc(C)cc2)=C(C)N1`, the TGI is over 100 µM. With `Cc1c(C(=O)c2ccccc2)[n+](=O)c2cc(F)c(F)cc2n1[O-]`, the GI50 is 1.16 µM and the TGI turned out to be 7.2 µM. For `CC(=O)ON=C1C=CC(=C(C#N)c2ccccc2)C=C1` the same measures were 3.44 µM and 16.8 µM.

In turn, `COc1ccc(/C=C/C(=O)CCN2CCN(CCC(=O)/C=C/c3ccc(OC)cc3)CC2)cc1` had a TGI of 69.5 µM. On to `O=C(CN1CCN(C(=O)c2ccco2)CC1)Nc1ccc(Cl)cc1C(=O)c1ccccc1Cl`, for which the GI50 was 12.5 µM and the TGI is 26.5 µM. The molecule `COc1ccc2nc3ccccc3c(NCCN(CCCl)CCCl)c2c1` registered a TGI of 7.73 µM. Take `NC(CSCSCC(N)C(=O)O)C(=O)O` (stereo unspecified): the TGI is over 225 µM. In turn, `CCOC(=O)C(=O)C(C#N)c1ccc(Cl)cc1` (stereo unspecified) showed a TGI of over 100 µM. Regarding `CC(=O)N1N=C(c2ccc(C)cc2)CC1c1cn(-c2ccccc2)nc1-c1cccc(Nc2ccnc3cc(Cl)ccc23)c1` (stereo unspecified), the GI50 is over 100 µM and the TGI was over 100 µM. On to `COCCn1c2c([n+](Cc3cnccn3)c1C)C(=O)c1ccccc1C2=O`, for which the GI50 is 0.0143 µM and the TGI came out at 0.104 µM. The molecule `NC(=O)c1csc(-c2ccc(CO)o2)n1` came in with a TGI of over 100 µM. `OCC1OC(n2cnc3c(Cl)nc(Nc4ccc(Cl)c(Cl)c4)nc32)CC1O` (stereo unspecified) yielded a TGI of 39.7 µM. As to `COc1cc(CC(=O)O)c([N+](=O)[O-])cc1OC`, the TGI was over 100 µM. Still for that read-out and setting: the result for `C=C(C)CCC(O)[C@](C)(O)[C@H]1[C@H](O)C[C@@]2(C)[C@@H]3CCc4c(cc(OC5OC(CO)C(O)C(O)C5O)c(O)c4C)C3(C)C(=O)C[C@]12C` (stereo partly specified) reads over 100 µM; that for `COc1cc(C(c2ccc3c(c2)OCO3)C2SCCCS2)cc(OC)c1OC` (stereo unspecified), over 100 µM. `CCOc1cc2c(cc1O)C(=O)C[C@@H]1[C@@H]2CC[C@]2(C)[C@@H](O)CC[C@@H]12` yielded a TGI of over 100 µM. Take `CC(C)=CCc1cc(/C=C/C(=O)O)cc(CC=C(C)C)c1O`: the concentration for total growth inhibition (TGI) was over 100 µM.

For `CCCCOC(=O)c1c(C)[nH]c(/C=C2\N=C(c3ccc[nH]3)C=C2OC)c1C`, the GI50 was 0.502 µM and the TGI was 4.65 µM. Take `COc1ncc(-c2ccc3nccc(C#CCCCCC(=O)NO)c3c2)cc1NS(=O)(=O)c1ccc(F)cc1F`: the GI50 was under 0.041 µM and the TGI came to 7.08 µM. Regarding `N#CCCN(c1ccc(C=O)cc1)S(=O)(=O)c1ccccc1`, the TGI is over 100 µM.

With `COc1cc(C)[nH]c(=O)c1CNC(=O)c1c(C)n([C@H](C)C2CCN(CC(F)(F)F)CC2)c2ccccc12`, the GI50 was 71.1 µM and the TGI was over 100 µM.

In the case of `C#CCNC(=O)CC[C@@H](C)[C@H]1CC[C@H]2[C@@H]3CC[C@@H]4CC(=O)CC[C@]4(C)[C@H]3CC[C@]12C`, the GI50 is 21.9 µM and the TGI turned out to be 74.5 µM.

Take `C[C@]12CC[C@@H]3c4ccc(OC(=O)N(CCCl)CCCl)cc4CC[C@H]3[C@@H]1CC[C@@H]2OP(=O)(O)O`: the GI50 is 50.2 µM and the concentration for total growth inhibition (TGI) was over 100 µM. For `N=c1oc2cc(O)ccc2cc1C(=O)Nc1cccc2ccccc12`, the TGI came out at 30.6 µM. This lies in the double-digit micromolar range. The molecule `OC(Cc1cc(CC(O)(C(F)(F)F)C(F)(F)F)nc(CC(O)(C(F)(F)F)C(F)(F)F)c1)(C(F)(F)F)C(F)(F)F` showed a concentration for total growth inhibition (TGI) of over 10 µM.

`COC(=O)[C@H](Cc1ccccc1)NC(=O)N(CCNC(=O)OC(C)(C)C)c1ccccc1` registered a TGI of over 100 µM. For `CC1C(O)=C(O)c2ccccc2N1O` (stereo unspecified), the TGI was over 100 µM.

Consider `Cc1cc(=O)oc2c(C)c3oc(CBr)cc3cc12`, for which the TGI was found to be 71.4 µM. Still for that read-out and setting: as for `Cn1c(=O)cc(Nc2ccc(N)cc2)[nH]c1=O`, the figure is over 100 µM; as for `C=C(Br)COc1ccc2c(C)cc(=O)oc2c1`, over 100 µM. For `Cc1c(C#N)c2nc3ccccc3n2c(=O)/c1=C/Nc1ccc(Cl)cc1`, the concentration for total growth inhibition (TGI) is over 100 µM.

For the molecule `CCOC(=O)CC1Nc2ccccc2C12CCc1c([nH]c3ccccc13)C2C(=O)OCC` (stereo unspecified), the TGI is over 100 µM. The molecule `CC(C)C(CCOS(=O)(=O)O)CCC(C)[C@H]1[C@@H](O)C(O)C2[C@]3(O)C[C@@H](O)C4(O)C[C@@H](O)CC[C@]4(C)C3CC[C@@]21C` (stereo partly specified) yielded a TGI of over 100 µM.
